Measured values: the supplement of paper PMC8728848
The other results are listed elsewhere or left out.

Tests used:
Assay in all cases: glycan array binding signal (z-score within array); higher = stronger binding
Details in all cases: glycan notation: IUPAC condensed, linker removed
[1] = molecular target: Neu5Ac(a2-3)Gal(b1-3)GalNAc(b1-4)Gal(b1-4)Glc
Outline: (§1)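 Columns mapping to the same glycan were averaged after glycan names were converted to IUPAC-condensed notation. The data come from 3228 arrays in the Consortium for Functional Glycomics database, limited to those with an available protein sequence. Binding is reported as a within-array Z-score averaged across arrays of one protein sequence and across linkers.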

[2] = molecular target: Neu5Ac(a2-3)Gal(b1-3)GalNAc(b1-4)[Neu5Ac(a2-3)]Gal(b1-4)Glc
Outline: as §1

[3] = molecular target: Neu5Ac(a2-3)Gal(b1-3)GalNAc(b1-4)[Neu5Ac(a2-8)Neu5Ac(a2-3)]Gal(b1-4)Glc
Outline: as §1

[4] = molecular target: Neu5Ac(a2-3)Gal(b1-3)GlcNAc
Outline: as §1

[5] = molecular target: Neu5Ac(a2-3)Gal(b1-3)GlcNAc(b1-3)Gal(b1-4)Glc
Outline: as §1

[6] = molecular target: Neu5Ac(a2-3)Gal(b1-3)GlcNAc(b1-3)[Fuc(a1-3)[Gal(b1-4)]GlcNAc(b1-6)]Gal(b1-4)Glc
Outline: as §1

[7] = molecular target: Neu5Ac(a2-3)Gal(b1-3)[Fuc(a1-4)]GlcNAc
Outline: as §1

[8] = molecular target: Neu5Ac(a2-3)Gal(b1-3)[Fuc(a1-4)]GlcNAc(b1-3)Gal(b1-4)Glc
Outline: as §1

[9] = molecular target: Neu5Ac(a2-3)Gal(b1-3)[Neu5Ac(a2-6)]GalNAc
Outline: as §1

[10] = molecular target: Neu5Ac(a2-3)Gal(b1-3)[Neu5Ac(a2-6)]GlcNAc(b1-3)Gal(b1-4)Glc
Outline: as §1

Neu5Ac(a2-3)Gal(b1-4)Glc = molecular target: Neu5Ac(a2-3)Gal(b1-4)Glc
Outline: as §1

[11] = molecular target: Neu5Ac(a2-3)Gal(b1-4)GlcNAc
Outline: as §1

[12] = molecular target: Neu5Ac(a2-3)Gal(b1-4)GlcNAc(b1-2)Man(a1-3)[Neu5Ac(a2-3)Gal(b1-4)GlcNAc(b1-2)Man(a1-6)]Man(b1-4)GlcNAc(b1-4)[Fuc(a1-6)]GlcNAc
Outline: as §1

[13] = molecular target: Neu5Ac(a2-3)Gal(b1-4)GlcNAc(b1-3)Gal(b1-4)Glc
Outline: as §1

[14] = molecular target: Neu5Ac(a2-3)Gal(b1-4)GlcNAc6S(b1-3)Gal6S(b1-3)GlcNAc6S
Outline: as §1

[15] = molecular target: Neu5Ac(a2-3)Gal(b1-4)[Fuc(a1-3)]GlcNAc
Outline: as §1

[16] = molecular target: Neu5Ac(a2-3)Gal(b1-4)[Fuc(a1-3)]GlcNAc(b1-3)Gal
Outline: as §1

[17] = molecular target: Neu5Ac(a2-3)Gal(b1-4)[Fuc(a1-3)]GlcNAc(b1-3)Gal(b1-4)Glc
Outline: as §1

[18] = molecular target: Neu5Ac(a2-3)Gal(b1-4)[Fuc(a1-3)]GlcNAc(b1-3)Gal(b1-4)[Fuc(a1-3)]GlcNAc(b1-3)Gal(b1-4)Glc
Outline: as §1

[19] = molecular target: Neu5Ac(a2-3)Gal(b1-4)[Fuc(a1-3)]GlcNAc6S(b1-3)Gal(b1-4)Glc
Outline: as §1

[20] = molecular target: Neu5Ac(a2-3)Gal6S(b1-4)[Fuc(a1-3)]GlcNAc(b1-3)Gal(b1-4)Glc
Outline: as §1

[21] = molecular target: Neu5Ac(a2-3)Gal6S(b1-4)[Fuc(a1-3)]GlcNAc6S(b1-3)Gal(b1-4)Glc
Outline: as §1

[22] = molecular target: Neu5Ac(a2-3)[GalNAc(b1-4)]Gal(b1-3)GalNAc(b1-4)[Neu5Ac(a2-3)]Gal(b1-4)Glc
Outline: as §1

[23] = molecular target: Neu5Ac(a2-3)[GalNAc(b1-4)]Gal(b1-4)Glc
Outline: as §1

[24] = molecular target: Neu5Ac(a2-6)Gal(b1-3)GlcNAc(b1-3)[Fuc(a1-3)[Gal(b1-4)]GlcNAc(b1-6)]Gal(b1-4)Glc
Outline: as §1

[25] = molecular target: Neu5Ac(a2-6)Gal(b1-3)GlcNAc(b1-3)[Gal(b1-4)GlcNAc(b1-6)]Gal(b1-4)Glc
Outline: as §1

Neu5Ac(a2-6)Gal(b1-4)Glc = molecular target: Neu5Ac(a2-6)Gal(b1-4)Glc
Outline: as §1

[26] = molecular target: Neu5Ac(a2-6)Gal(b1-4)GlcNAc
Outline: as §1

[27] = molecular target: Neu5Ac(a2-6)Gal(b1-4)GlcNAc(b1-2)Man(a1-3)[Neu5Ac(a2-6)Gal(b1-4)GlcNAc(b1-2)Man(a1-6)]Man(b1-4)GlcNAc(b1-4)GlcNAc
Outline: as §1

[28] = molecular target: Neu5Ac(a2-6)Gal(b1-4)GlcNAc(b1-2)Man(a1-3)[Neu5Gc(a2-6)Gal(b1-4)GlcNAc(b1-2)Man(a1-6)]Man(b1-4)GlcNAc(b1-4)GlcNAc
Outline: as §1

[29] = molecular target: Neu5Ac(a2-6)Gal(b1-4)GlcNAc(b1-2)[Neu5Ac(a2-3)Gal(b1-4)GlcNAc(b1-4)]Man(a1-3)[Neu5Ac(a2-3)Gal(b1-4)GlcNAc(b1-2)Man(a1-6)]Man(b1-4)GlcNAc(b1-4)GlcNAc
Outline: as §1

[30] = molecular target: Neu5Ac(a2-6)Gal(b1-4)GlcNAc(b1-3)Gal(b1-4)Glc
Outline: as §1

[31] = molecular target: Neu5Ac(a2-6)Gal(b1-4)GlcNAc(b1-3)Gal(b1-4)[Fuc(a1-3)]Glc
Outline: as §1

[32] = molecular target: Neu5Ac(a2-6)Gal(b1-4)GlcNAc(b1-3)[Neu5Ac(a2-6)Gal(b1-4)GlcNAc(b1-6)]Gal(b1-4)Glc
Outline: as §1

B1: MIC1 (Toxoplasma gondii), O00834 (protein)
chain: VGPEAYGEASHSHSPASGRYIQQMLDQRCQEIAAELCQSGLRKMCVPSSRIVARNAVGITHQNTLQWRCFDTASLLESNQENNGVNCVDDCGHTIPCPGGVHRQNSNHATRHEILSKLVEEGVQRFCSPYQASANKYCNDKFPGTIARRSKGFGNNVEVAWRCYEKASLLYSVYAECASNCGTTWYCPGGRRGTSTELDKRHYTEEEGIRQAIGSVDSPCSEVEVCLPKDENPPLCLDESGQISRT
glycan array binding signal (z-score) [1]: -0.42 | glycan array binding signal (z-score) [2]: 1.69 | glycan array binding signal (z-score) [3]: 1.48 | glycan array binding signal (z-score) [4]: 2.24 | glycan array binding signal (z-score) [5]: 1.71 | glycan array binding signal (z-score) [6]: 0.358 | glycan array binding signal (z-score) [7]: 1 | glycan array binding signal (z-score) [8]: -0.005 | glycan array binding signal (z-score) [9]: 1.81 | glycan array binding signal (z-score) [10]: 1.73 | glycan array binding signal (z-score) (Neu5Ac(a2-3)Gal(b1-4)Glc): 0.76 | glycan array binding signal (z-score) [11]: 1.75 | glycan array binding signal (z-score) [12]: 2.46 | glycan array binding signal (z-score) [13]: 0.544 | glycan array binding signal (z-score) [14]: 4.52 | glycan array binding signal (z-score) [15]: 0.453 | glycan array binding signal (z-score) [16]: -0.439 | glycan array binding signal (z-score) [17]: 0.087 | glycan array binding signal (z-score) [18]: -0.052 | glycan array binding signal (z-score) [19]: 1.73 | glycan array binding signal (z-score) [20]: 1.33 | glycan array binding signal (z-score) [21]: 2.46 | glycan array binding signal (z-score) [22]: 1.29 | glycan array binding signal (z-score) [23]: 2.98 | glycan array binding signal (z-score) [24]: -0.408 | glycan array binding signal (z-score) [25]: -0.332 | glycan array binding signal (z-score) (Neu5Ac(a2-6)Gal(b1-4)Glc): -0.342 | glycan array binding signal (z-score) [26]: -0.277 | glycan array binding signal (z-score) [27]: 0.047 | glycan array binding signal (z-score) [28]: -0.013 | glycan array binding signal (z-score) [29]: 1.84 | glycan array binding signal (z-score) [30]: -0.205 | glycan array binding signal (z-score) [31]: -0.348 | glycan array binding signal (z-score) [32]: -0.268
